What was measured:
HMGB1(disulfide) = molecular target: T1, HMGB1(disulfide) (Rattus norvegicus, UniProt P63159); test: SPR binding specificity study, HMGB1(disulfide); details: analyte HMGB1 (disulfide); captured on HSA
T1 construct: purchased HMGBiotech Srl, Milano, Italy
T1 sequence (P63159 1-215): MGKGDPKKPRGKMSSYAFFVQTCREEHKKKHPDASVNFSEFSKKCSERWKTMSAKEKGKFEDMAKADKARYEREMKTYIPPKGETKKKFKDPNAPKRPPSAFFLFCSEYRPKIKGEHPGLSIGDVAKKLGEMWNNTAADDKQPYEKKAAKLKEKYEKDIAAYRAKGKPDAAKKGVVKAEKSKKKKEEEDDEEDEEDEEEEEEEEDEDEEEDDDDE
Method: (§1) HSA (Albucult®, Novozyme) was diluted to 10 μg/ml in acetate, pH 4.0, and immobilized onto a CM5 sensor chip using a Biacore 2000 instrument. Immobilization was performed by amine chemistry, using amine coupling kit, according to the manufacturer's instructions. The first surface of each chip was activated and deactivated for use as a reference cell (blank surface) during analyte injections. HBS-EP was used as running buffer, supplemented with 1.5 mM DTT when analyzing the binding to HMGB1(red). ZZA4263 was injected at a concentration of 100 nM for 4 minutes over the HSA and the reference sensor chip surfaces at a constant flow rate of 30 μl/min. This was followed by 4 minutes' injection of 0, 8.3, 25, 75, 225 and 675 nM of HMGB1(red), HMGB1(disulfide), HMGB2 (Biorbyt, cat. no. orb180287), HMGB3 (Biorbyt, cat. no. orb180288), SP100 (Biorbyt, cat. no. orb169341), TNF (R&D Systems, cat. no. 210-TA), IL-6 (R&D Systems, cat. no. 206-IL) and IL-1β (R&D Systems, cat. no. 201-LB/CF), respectively. The proteins were allowed to dissociate for 20 minutes before the chip surfaces were regenerated by two 10 second pulses using 10 mM HCl. The reference surface and the buffer sample were subtracted from all curves. The buffer sample was subtracted to adjust for the dissociation of ZZA4263 from HSA. […]

TNF = molecular target: T2, TNF (Homo sapiens, UniProt P01375); test: SPR binding specificity study, TNF; details: up to 675 nM analyte
T2 construct: purchased R&D Systems 210-TA
Method: as §1

[1] = design: species or system C57BL/6J mice; details: mouse, in vivo, 1.6 mg/kg
Method: PK study in mouse: Six C57BL/6J mice (Charles River) were divided into two groups for i.p. or i.v. administration. ZZA4263 was prepared in PBS and administered as a bolus injection through tail vein or i.p. at 1.6 mg/kg (83 nmol/kg) at a slow and steady rate. The dosing volume administered was 5 and 20 ml/kg for i.v. and i.p. respectively. Serum samples were collected from tail vein of each mouse at time points 0 (predose), 5 min, 8 h, 48 h and 120 h. To prepare sera, the blood samples were left at RT for at least 30 min before centrifugation at 2000×g for 5 min. Sera were extracted and transferred into pre-labelled test tubes and stored at −20° C.
Quantification by ELISA: 96-well half area plates were coated with mouse anti-Z monoclonal antibody (2 μg/ml) in PBS (50 μl/well) and incubated overnight at 4° C. Plates were washed in PBST and blocked with PBSC for 1.5 h. ZZA4263 standard and serum samples were added to the plates (50 μl/well) and incubated for 1.5 h at RT. The ZZA4263 standard was diluted at 10 different concentrations between 1.3-50 μM in PBSC+1% mouse or rat serum pool. Serum samples were diluted 100× (minimal required dilution) in PBSC and titrated in 1:2 steps in PBSC+1% mouse or rat serum pool. […] The absorbance at 450 nm was measured in a 96-well plate reader (Victor3). […]

IL-6 = molecular target: T3, IL-6 (Homo sapiens, UniProt P05231); test: SPR binding specificity study, IL-6; details: up to 675 nM analyte
T3 construct: purchased R&D Systems 206-IL
Method: as §1

T2 sequence (P01375 77-233 limits assumed): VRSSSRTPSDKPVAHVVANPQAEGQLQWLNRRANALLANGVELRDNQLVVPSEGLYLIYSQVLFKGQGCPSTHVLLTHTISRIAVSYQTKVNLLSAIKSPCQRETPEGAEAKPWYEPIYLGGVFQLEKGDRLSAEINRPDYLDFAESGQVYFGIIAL
T3 sequence (P05231 30-212): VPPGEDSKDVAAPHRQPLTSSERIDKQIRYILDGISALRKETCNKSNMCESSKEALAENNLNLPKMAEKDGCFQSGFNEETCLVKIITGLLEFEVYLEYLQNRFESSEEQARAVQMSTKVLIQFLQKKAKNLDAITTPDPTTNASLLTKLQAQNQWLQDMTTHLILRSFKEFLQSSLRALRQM

B1: ZZA4263: heterodimer ZH27/ZH32, format Z(boxB)-L2-Z(boxA)-ABD (protein)
chain: AEAKYAKEAWLAEQEIWQLPNLTEAQFQAFILKLIDDPSQSSELLSEAKKLNDSQAPKGAPGGGGSTSAEAKYAKEDWDAFWEIIWLPNLTDAQQRAFIYKLEDDPSQSSELLSEAKKLNDSQAPKASGSLAEAKEAANAELDSYGVSDFYKRLIDKAKTVEGVEALKDAILAALP
modifications: Engineered HMGB1 binding polypeptide
notes: heterodimer ZH27/ZH32, format Z(boxB)-L2-Z(boxA)-ABD
HMGB1(disulfide)
  ka: 49000 M⁻¹ s⁻¹
  kd: 0.00054 s⁻¹
TNF
  binding to TNF: No significant binding
[1]
  bioavailability after i.p. administration: 67 % of i.v. administration
  terminal half-life, i.p. compared with i.v.: appears to be the same
IL-6
  binding to IL-6: No significant binding

— patent US20220389066A1, “POLYPEPTIDES” (Affibody AB, priority 2019, published 2022)
